Assay results from the supplement of paper PMC11417369.
This is one part of the list.

system: PF3D7_0420300 AP2 domain 1 (GST-tagged); test: gcPBM binding intensity (ln(normalized median fluorescence intensity)); higher = stronger DNA binding
Outline: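 Alexa488 anti-GST antibody, scanned at 488 nm, detected GST-tagged P. falciparum DNA-binding domains that had been expressed in E. coli and incubated for 1 h on an Agilent 4 × 180k array. The array carried primer-extended double-stranded 36-bp intergenic genomic probes and negative controls. Binding intensity is the highest Masliner-normalised natural-log median intensity across replicate spots of either orientation of each probe.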

| Sequence | gcPBM binding intensity (ln) |
| --- | --- |
| TATAAGGTGTCCTATACACACTCCAATAAATATATA [CACACA_site2091] | 9.18 |
| AGGAACATAAGCAATGTATAAACATAAAACTATAAT [CACACA_negctrl_site1832] | 9.53 |
| TAAAGAGAAAAACATACACACACAACAAAATATGTA [CACACA_site8872] | 10 |
| AAAAAAAAAAAAAACACACACACACCCACATATACA [CACACA_site2663] | 10.1 |
| ACAAGGAATATATAAGATAATTTTAAATATAACACG [CACACA_negctrl_site1734] | 9.43 |
| ATATATATAATTTTTACACACGCAATAAATATATAT [CACACA_site218] | 9.54 |
| TCAAAAGAATAATTGGTGCAAATTATATAATATAAT [GTGCAC_site9804] | 9.2 |
| ATATTTATGGAAAAAGAACACACAATCAAACAAAAA [CACACA_site9233] | 9.82 |
| CTTTTTTATATCTCTACACACATTTATAACCATTTG [CACACA_site4897] | 9.69 |
| TATTTTAAAAAAAAAAGTACACATAATATATATAAC [XGTACX_site5416] | 9.41 |
| ATACATTTATTGTATTGTACATAATATTATATATTC [XGTACX_site7115] | 9.26 |
| TAATATAATAGAAGTGTACACACATATTTATGGGTG [CACACA_site9023] | 9.72 |
| TAATATAATGATGCAGTGCATATGTTAAAATGAAAA | 9.25 |
| AATAATTTTTAAATATAAACATTTTTTTTTTTTTTT [GTGCAC_negctrl_site532] | 8.77 |
| ATTAAATGCACATATACACACACCCAATTTTAAGTT [CACACA_site3049] | 9.96 |
| ATAAAATATTAGACATTTATTAATATTACACATATC [XGTACX_negctrl_site364] | 9.25 |
| ACAAAATAAACCACGTGTACAAATTTATAATGTGTA [XGTACX_site1153] | 9.36 |
| ATATATATATATTCCACACACACACCCAAAAAAAAA [CACACA_site3649] | 9.7 |
| TTTTATTTTTTATTTGCACACAATATGTAAAAAAAT [CACACA_site2927] | 9.18 |
| AATCATTTTATTATCCTAACAAAAAAAAAATATATT [CACACA_negctrl_site115] | 8.99 |
| ACGATGCATTAATCTGCACACCACAACAAAACGTTT [CACACA_site899] | 9.31 |
| ACAACGCGTTAAATGTGTACATATTTATAAGTATAT [XGTACX_site8777] | 9.23 |
| AGCTATGTATTCTACACACACATACAGACATATATA [CACACA_site3428] | 9.89 |

| Sequence | gcPBM binding intensity (ln) |
| --- | --- |
| TTTGCATTTCTTAATTGTACTTAAAAAAAAAATAAT [XGTACX_site758] | 8.78 |
| TATACCAATGAATGAGTGCAAAGAAGATAAGGAAAA | 9.43 |
| AAGGTATTTATAACTACACACTTATTTATAACCTAA [CACACA_site6194] | 9.34 |
| ACTTATTGTGGTTTTGCATGTAGCATTTTTACATAC [TGCATGCA_site247] | 9.65 |
| AATAAAATGAAATGAAATAAAAAAAAAAAAAAAATG [TGCATGCA_negctrl_site305] | 9.41 |
| TATATTATAAACATATGTACATATGTATAAATACAT [XGTACX_site722] | 9.19 |
| AAAAAAAAAAAAAAATTAAAGTAATGGAAAAAAAAA [CACACA_negctrl_site1666] | 9 |
| AACATATATATATACACACACATATATATATGAAAT [CACACA_site279] | 9.97 |
| ATTATTAATATTATATGTACGCACTATATCAAGGCT [XGTACX_site6468] | 9.16 |
| TATACATACATACATACACACACACCGATATATACA [CACACA_site8184] | 10.2 |
| TTCCAAAAAATTATTACACACATATGGGCACATATA [CACACA_site679] | 9.48 |
| ACAAAAAAACATGAAACACACACAAATATATATATA [CACACA_site8566] | 10 |
| TGCCTATTTTGGATGTGTACACATATATATATTTAT [XGTACX_site6741] | 9.57 |
| ACGCTAATTATGTGCACACAAATTAAAGGTCTACAA [CACACA_site147] | 9.4 |
| AATGTTATTTGTTTATCACACATTAGGATGTTTATA [CACACA_site5710] | 9.43 |
| ATTCTATAATATAAGAGTACTTATTTTTTTTAATTT [XGTACX_site7671] | 9.02 |
| TATAAAATTAAACAAAGTACTAGACATATATATAGA [XGTACX_site3247] | 9.44 |
| AAAAAAAAAAAAAACACACACACAAGAGTATATAAA [CACACA_site6580] | 9.99 |
| TTATATATTTTTTTTTGTACATAGAAGAGGGAAAAA [XGTACX_site2178] | 8.95 |
| ATGAATTTATTACATTGTACATTTTTAAAAGGTTAC [XGTACX_site124] | 9.11 |
| TTCCCTCCTCAAAATTGTACTAGAATAATAACATAA [XGTACX_site8765] | 8.91 |
| TACACGCTAAAATACACACACACACCCACATATATA [CACACA_site4153] | 10.2 |
| TTTTTTAAACATATTATGTGTATTACATAGTTATGC [XGTACX_negctrl_site596] | 8.93 |

| Sequence | gcPBM binding intensity (ln) |
| --- | --- |
| TTATTATATTAAAATTGTACTTGCTTTCAATATGAT [XGTACX_site5305] | 9.12 |
| TTATAATATTATAAAATAACATTTATTAATTATTGG [CACACA_negctrl_site1794] | 8.87 |
| TAAACGTTATATAGTGCATGTCATATTTTATTATAT [TGCATGCA_site935] | 9.35 |
| ATCTTTGGAAATTTATGTACTTATATTTATATTGTA [XGTACX_site6606] | 9.37 |
| ATTTCTAGTTTAAGATGTACTTTAATAAAAATTATT [XGTACX_site4820] | 9.03 |
| AAATATCAACAAAAATGTACAAATGTAAAAGAATAT [XGTACX_site4676] | 9.64 |
| AGGTTAAAAATAAATACACACATTTTATGTCTGTAT [CACACA_site996] | 9.36 |
| TTTTTTTTTTAATAAAGTACATATAAATTACCTAAT [XGTACX_site4434] | 8.85 |
| ACTATACAGTTATACACACACATATATATATAATAT [CACACA_site310] | 9.9 |
| AAATGAGTATTCATATGTACACAAATAAAAAATTAA [XGTACX_site2968] | 9.13 |
| ATGGAAGGAAACAATAAAAAAAAAAAAAAATATATA [XGTACX_negctrl_site594] | 9.23 |
| AATGACAACCTTGTCACACATATATATATATATATA [CACACA_site5977] | 9.17 |
| TTTTTTATTTGACAAGCACACACTTAAATATATATA [CACACA_site3358] | 9.31 |
| CATTTAAAGGACAAGCTGCACTTACAAAATAAAAAA | 8.97 |
| ATATTATAATTAAAACGTACGTATTTATGAATTCAT [XGTACX_site1047] | 9.16 |
| TACATAAATTAAAACACACACACACTAAAAAAAAAA [CACACA_site7130] | 10.1 |
| TATTAATTAAACCATACACACATAATTTTTTTATAA [CACACA_site843] | 9.47 |
| GTTAATATTTACTACACACACTTAAAATATGTATAT [CACACA_site4194] | 9.74 |
| TTTTCATTTTTCTTTACACACATATATTTATTTATA [CACACA_site7119] | 9.73 |
| AAAAGAATATAAAGATACATTGTGATATGGGACAAA [CACACA_negctrl_site405] | 9.46 |
| GAAATAATTTCATATACACACATATACATACATACA [CACACA_site1358] | 9.6 |
| TATATATATATTGAAGTGCAAAATACTGTACGTAAT | 9.4 |
| TTAATTCTACTTATTACACACATATTAATCAAAAAT [CACACA_site1478] | 9.35 |

| Sequence | gcPBM binding intensity (ln) |
| --- | --- |
| TATATATATATAAACAGTACACAAATTGTAAATAAA [XGTACX_site8268] | 9.55 |
| TATATATATATATATATTGAAATTTATAATAATATT [TGCATGCA_negctrl_site407] | 8.94 |
| AAATATTTATACTATACACACCCAATTTAAAAAAAA [CACACA_site6669] | 9.58 |
| AACATAGAAACGTTATGTACATATTGAAGGATATTA [XGTACX_site6015] | 9.41 |
| ATTTTTTTATGTACACAAAAAAAAAAAAAAATTTAA [CACACA_negctrl_site1028] | 8.73 |
| ATTTGAAATGCATGAACACACACAGCTATAAATGCA [CACACA_site8229] | 9.46 |
| TAGTAATATATATTTTGTACATAAAATAATATATAA [XGTACX_site7971] | 8.96 |
| CGTTATTATCCACATACACACAGGAATAAAAAATTA [CACACA_site2883] | 9.65 |
| TATATATGTTAAAACGTGCACATATATATATATATA [GTGCAC_site9589] | 9.1 |
| ATAAAATATAAAAAAAGTACAAAAAAAAAAAAAAAA [XGTACX_site6657] | 9.05 |
| AAACTGTCGCTCATAAAGAAGAATGAAATACATTAA [TGCATGCA_negctrl_site60] | 9.05 |
| ACCCATGATTGTTACAGTACTCTACTTTCTAATATA [XGTACX_site98] | 9.59 |
| ATATATGCATATTATACACACATATGTATATACATT [CACACA_site965] | 9.56 |
| AAAAAAAAAAAAAATGCACACAATGGCTAGCTGTAC [CACACA_site2273] | 9.45 |
| TTTTCTGTATATTGTGTGCACACAATTAACAAAAAA [GTGCAC_site9817] | 9.46 |
| TGGAGGTCAGTTCACAGTACCCAGGAAATCTACGGA [XGTACX_site1995] | 8.93 |
| CCATAGATATTTTATACACACATATAACATATTAAT [CACACA_site6312] | 9.52 |
| ATATTGACAAATATTACACACATATATAAATATGTA [CACACA_site7835] | 9.45 |
| ATTTATTTTAATATATGTACATATATTTTTTTATTA [XGTACX_site3389] | 9.19 |
| ATATAATATTACACAAGTACAAAAATTAATACTAAA [XGTACX_site482] | 9.36 |
